Laboratory results as given in PMC6919601, “Identification of Plasmodium dipeptidyl aminopeptidase allosteric inhibitors by high throughput screening” (PLoS ONE, 2019).
Among all 110,000 compounds or so, about 230 (0.21%) showed an effect of 50% or more. The list shows a part of the results.

Target: DPAP1 (Plasmodium falciparum, UniProt Q8IIJ9)
Assay: primary screen, percent inhibition; read by cleavage of a fluorogenic dipeptide substrate; higher = more effect of the substance
Set-up: species or system P. falciparum D10 trophozoite lysates; single well
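Also: 30 min substrate incubation versus DMSO and 10 µM JCP410 controls.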

Chain of DPAP1 (Q8IIJ9 whole entry, looked up): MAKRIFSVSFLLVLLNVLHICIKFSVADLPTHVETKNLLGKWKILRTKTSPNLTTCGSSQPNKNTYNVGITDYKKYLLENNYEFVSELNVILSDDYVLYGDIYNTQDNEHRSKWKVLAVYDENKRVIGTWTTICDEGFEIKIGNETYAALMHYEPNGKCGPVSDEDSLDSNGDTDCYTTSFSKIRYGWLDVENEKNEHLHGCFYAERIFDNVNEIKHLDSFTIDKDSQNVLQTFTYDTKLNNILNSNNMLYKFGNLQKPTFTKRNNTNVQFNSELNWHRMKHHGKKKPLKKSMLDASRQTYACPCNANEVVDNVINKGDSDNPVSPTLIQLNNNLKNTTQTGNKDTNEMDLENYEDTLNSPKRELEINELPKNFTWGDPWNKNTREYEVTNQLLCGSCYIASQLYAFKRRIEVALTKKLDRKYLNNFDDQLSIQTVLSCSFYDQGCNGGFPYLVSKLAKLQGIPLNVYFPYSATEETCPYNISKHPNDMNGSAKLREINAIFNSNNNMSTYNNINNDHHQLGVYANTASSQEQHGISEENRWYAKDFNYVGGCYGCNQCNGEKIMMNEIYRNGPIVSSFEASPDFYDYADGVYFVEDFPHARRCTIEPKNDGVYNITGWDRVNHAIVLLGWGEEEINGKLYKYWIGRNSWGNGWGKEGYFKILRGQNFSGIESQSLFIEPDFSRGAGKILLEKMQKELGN

SMILES | % Inhibition @ 10 uM
Cc1ccc(-c2nc(CS(=O)CC(=O)NCc3cccnc3)c(C)o2)cc1 (stereo not drawn) | 2.37%
COc1ccccc1C(=O)NCCn1cc(SCC(=O)NCc2ccco2)c2ccccc21 | 6.64%
Cc1nc2nc(NC(=O)c3ccco3)nn2c(O)c1C | 2.05%
COc1ccc(C2C=C(c3ccc(C)cc3)Nc3nnnn32)cc1OC (stereo not drawn) | 1.73%
CCOCCn1c(CN2CCN(Cc3ccccc3)CC2)nc2c1c(=O)[nH]c(=O)n2C | -2.92%
CCOC(=O)c1sc(/N=C/c2c(C)nn(-c3ccc(C)cc3)c2O)c(C#N)c1C | -1.68%
COc1ccc(S(=O)(=O)N2CCN(c3ccccc3)CC2)cc1 | -4.3%
Cc1nc2ccccc2c(C(=O)O)c1-c1ccccc1 | 6.49%
CCOC(=O)C1=C(C)N=c2s/c(=C/c3cnn(C)c3C)c(=O)n2C1c1ccc(Cl)cc1 (stereo not drawn) | 5.38%
O=C(O)c1ccc(Br)c(N2C(=O)C3CC=CCC3C2=O)c1 (stereo not drawn) | -0.25%
COCCCNC(=O)c1cc2c(=O)n3ccccc3nc2n(CCc2ccccc2)c1=N | 3.6%
COCCN1C(=O)/C(=C/c2ccc(C)s2)S/C1=N\c1ccccc1 | -2.25%
CCSc1nc(SCC)c2c3c(sc2n1)CN(C)CC3 | 9.01%
COC(F)(C(=O)Nc1cccc(C(=O)Nc2cccc(Cl)c2)c1)C(F)(F)F (stereo not drawn) | -3.41%
Cc1ccc(S(=O)(=O)N(CC(=O)Nc2cccnc2)c2ccccc2)cc1 | -2.44%
CN1C(=O)C(O)(CC(=O)c2ccc(Cl)c(Cl)c2)c2ccccc21 (stereo not drawn) | -1.02%
CCO/N=C1/CC(c2ccccc2)Cc2onc(C)c21 (stereo not drawn) | 3.96%
CCCNC(=O)c1oc2ccc3c(c2c1C)C=CC1(CCCC1)O3 | 9.74%
COc1ccc(CNC(=O)c2cc(S(=O)(=O)N3CCOCC3)cn2C)cc1 | -3.1%
O=C(c1cc(Cl)ccc1Cl)N1CCN(Cc2ccccc2)CC1 | 9.82%
N#CC1=C(N)Oc2cc(N)ccc2C1c1ccc(Cl)c(Cl)c1 (stereo not drawn) | 4.66%

SMILES | % Inhibition @ 10 uM
COc1ccc(-c2cc(-c3ccc(OC)cc3)nc(Nc3ccccc3C(=O)O)n2)cc1 | -0.736%
Cc1ccc(-c2nn(CC(=O)NCc3ccco3)c(=O)c3ccccc23)cc1 | -8.86%
COc1cc(C(=O)c2ccccc2)c(OC)cc1C(=O)NC1CC(C)(C)NC(C)(C)C1 | 1.76%
COc1ccc2c(CNCc3ccc4c(c3)OCO4)c(C(=O)O)n(Cc3ccc(F)cc3Cl)c2c1 | 6.45%
CCOC1CC(c2ccccc2)=NN1c1ccc([N+](=O)[O-])cc1 (stereo not drawn) | -4.24%
COC(=O)CCC(=O)Nc1ccc(C)cc1 | 0.00178%
CCc1ccc(-c2cc(C(=O)O)c3ccccc3n2)cc1 | 0.177%
O=C(NCc1ccncc1)C(Sc1ccccc1)c1ccccc1 (stereo not drawn) | -3.75%
Cc1c(CN2CCCCC2C)c(=O)n(-c2ccccc2)n1C (stereo not drawn) | -0.664%
COc1cc(OC)c(OC)cc1/C=C1\SC(c2ccc(C)cc2)=NC1=O | -6.59%
Cc1ccccc1C(=O)NC1CCN(Cc2ccccc2)CC1 | -0.833%
COc1ccc(NC(=O)CSc2ccc(C)cc2)cc1 | 2.37%
Cc1oc(-c2cccc(Cl)c2)nc1CN1CCCC(C(=O)NCCCN2CCOCC2)C1 (stereo not drawn) | -1.05%
O=C(O)c1nccnc1C(=O)NCc1ccco1 | -4.98%
CCCCN1C(=O)c2cccc3c(S(=O)(=O)NC4(C(=O)O)CCCCC4)ccc1c23 | 2.49%
N#C/C(=C\c1c(Oc2ccccc2Cl)nc2ccccn2c1=O)C(=O)N1CCOCC1 | -5.11%
N#Cc1c(N)nc(SCc2ccccc2)c(C#N)c1-c1ccco1 | 2.55%
CC(C)C[C@H](NC(=O)OC1CCCc2ccccc21)C(=O)NCC#N (stereo partly drawn) | -3.04%
CCCCCC1CCN2c3c1cc(C(=O)O)cc3C1C=CCC1C2c1ccccc1 (stereo not drawn) | 20.4%
CC(C)OP(=O)(CN1CCCCC1)OC(C)C | 3.98%
Cc1ccc(CNC(=O)CSCc2ccccc2C)cc1 | 1.27%

SMILES | % Inhibition @ 10 uM
COc1ccc(N2C(=O)c3ccccc3NC2c2ccc(C)cc2)cc1 (stereo not drawn) | -1.96%
CCSc1nnc(NC(=O)c2cc(=O)c3cc(C)cc(C)c3o2)s1 | 5.06%
CCn1cc(/C=C2/NC(=O)N(Cc3ccccc3F)C2=O)c2ccccc21 | -11.5%
CCOc1ccc(Cl)cc1/C=C1\NC(=O)N(Cc2ccccc2F)C1=O | -5.51%
COc1ccc(-c2csc3nc4ccccc4n23)cc1 | -4.01%
CCN1CCN(C(=O)c2ccc(CS(=O)c3ccc(C)cc3)o2)CC1 (stereo not drawn) | -6.89%
COCc1nnc(NC(=O)CC(C)c2ccccc2)s1 (stereo not drawn) | -5.2%
CC(=O)Nc1ccc(S(=O)(=O)N2CCN(C(=O)c3ccc(C)cc3)CC2)cc1 | 1.62%
CCC(C)N(C)c1ccc(NC(C)=O)cc1 (stereo not drawn) | -1.36%
CCC(Sc1nc2nccnc2c(=O)n1Cc1ccccc1)C(=O)NC1CCCCC1 (stereo not drawn) | -2.17%
O=C(CC(Nc1ccc2ncccc2c1)c1ccc(F)cc1)c1ccccc1 (stereo not drawn) | -0.736%
CCOc1cc(S(=O)(=O)Nc2ccc(Cl)cn2)ccc1F | 4.94%
CC(C)Oc1ccc(C(=O)NC2C3CC4CC(C3)CC2C4)cc1 (stereo not drawn) | -4.56%
CCC(C)NC(=O)CSc1nnc(-c2ccc(OC)c(OC)c2)c(-c2ccc(OC)c(OC)c2)n1 (stereo not drawn) | -0.251%
CC(C)C[C@@H](/C=C/S(C)(=O)=O)NC(=O)[C@@H](Cc1ccccc1)NC(=O)c1cnccn1 | -1.5%
CC(C)(C)c1cc(-c2ccco2)c(C#N)c(S)n1 | 20.6%
COc1ccc2c(c1)Sc1ccccc1N2C(C)=O | 1.96%
Cc1ccc(O)c(C(=O)CSc2ncc(-c3ccccc3)n2C)c1 | 3.66%
O=C(COc1ccccc1)N1CCN(c2cccc(Cl)c2)CC1 | -3.74%
C=CCNc1nc(Cl)nc(N2CCCCC2)n1 | -4.23%
CC1=C(C(=O)OCC(Cl)(Cl)Cl)C(c2ccc(O)cc2)NC(=O)N1 (stereo not drawn) | 4.35%
